In PubChem BioAssay AID488969 (Vanderbilt High Throughput Screening Facility, 2010):
Over roughly 110,000 compounds, “z-score” has its median near -0.1; the highest 2% begin near 2. This is one part of the list. Non-standard residues stand in square brackets, D forms with d. Residues, ends and D or L forms follow the SMILES beside them. ξ: configuration not given here. *: point of attachment. ξPhe(4-Me) = Cc1ccc(CC(N)C(=O)O)cc1; Bz = O=C(c1ccccc1)*

target: Metabotropic glutamate receptor 8 (Rattus norvegicus) (UniProt P70579); assay: rat mGluR8 modulators via GIRK flux, primary screen, cell-based, thallium flux, HTS (AID 488969); conditions: HEK293 rat mGluR8, GIRK (G protein-gated inwardly rectifying potassium channel) thallium flux, FluoZin2; at 10 µM; stronger effect = higher value; submaximal glutamate (EC20) added with thallium
Sequence of UniProt P70579 (P70579 whole entry, looked up): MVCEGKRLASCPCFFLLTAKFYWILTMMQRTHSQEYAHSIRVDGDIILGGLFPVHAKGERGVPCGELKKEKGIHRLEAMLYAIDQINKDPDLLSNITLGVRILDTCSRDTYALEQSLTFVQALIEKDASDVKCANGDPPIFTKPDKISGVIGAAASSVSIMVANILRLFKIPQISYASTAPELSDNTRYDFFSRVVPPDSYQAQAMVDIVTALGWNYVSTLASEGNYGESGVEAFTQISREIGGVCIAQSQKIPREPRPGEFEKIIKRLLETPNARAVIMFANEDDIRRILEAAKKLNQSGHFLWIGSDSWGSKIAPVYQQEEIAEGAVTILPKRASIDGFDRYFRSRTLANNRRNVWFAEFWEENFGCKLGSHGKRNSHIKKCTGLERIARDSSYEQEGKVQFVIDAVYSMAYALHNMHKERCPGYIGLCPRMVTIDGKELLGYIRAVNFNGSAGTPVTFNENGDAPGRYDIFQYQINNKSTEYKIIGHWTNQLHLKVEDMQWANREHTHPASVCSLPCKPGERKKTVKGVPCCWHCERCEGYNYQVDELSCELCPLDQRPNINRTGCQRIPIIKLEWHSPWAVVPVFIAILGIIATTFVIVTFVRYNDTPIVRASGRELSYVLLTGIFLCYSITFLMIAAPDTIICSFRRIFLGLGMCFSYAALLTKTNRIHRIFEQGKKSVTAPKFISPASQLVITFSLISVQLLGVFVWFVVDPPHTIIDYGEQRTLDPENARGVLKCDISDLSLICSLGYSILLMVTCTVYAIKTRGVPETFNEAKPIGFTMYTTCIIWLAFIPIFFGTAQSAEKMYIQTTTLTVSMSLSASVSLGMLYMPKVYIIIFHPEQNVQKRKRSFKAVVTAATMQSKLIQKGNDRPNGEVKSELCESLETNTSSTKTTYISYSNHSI

Going from `CC1CCN(S(=O)(=O)c2csc(C(=O)Nc3ccccc3)c2)CC1` to `CS(=O)(=O)Nc1ccccc1C(=O)Nc1ccc2c(c1)OCCO2`, the z-score rises from -0.0213 to 1.36.

Going from `CCCc1cc(=O)[nH]c(Nc2cc(OC)ccc2OC)n1` to `COC(=O)c1cc(OC)ccc1-c1ccc(OC)cc1`, the z-score falls from 0.139 to -0.081.

Compared with `COc1ccc(OCCC(=O)NCc2ccccc2)cc1`, `CCCCOc1ccc(C(C)NC(=O)CCS(=O)(=O)Cc2ccccc2Cl)cc1` (configuration not stated) is higher in z-score: 0.0188 for the first, 0.131 for the second.

Compared with `CCn1c(NCc2ccccn2)nc2ccccc21`, `COn1c(SCc2cccc(Cl)c2)nc2ccccc2c1=O` is higher in z-score: -0.447 for the first, 1.06 for the second.

Going from `CCSc1nnc(NC(=O)CSc2nccn2-c2cccc(C)c2)s1` to `CCc1cc2c(SCC(=O)c3ccccc3)ncnc2s1`, the z-score falls from 1.34 to 0.275.

First: CCc1cc(C)cc(OCCNC(=O)c2ncn[nH]2)c1
Second: CCOc1ccc(OCC)c(NC(=O)CC2Oc3ccc(C)cc3NC2=O)c1 (configuration not stated)
The z-score of the first is higher: 1.38 for the first, 0.616 for the second.

Compared with `CC(=O)Oc1ccc(-c2ccc(C(=O)O)cc2)cc1`, `CC(=O)Oc1ccc(/C=N/NC(=O)C2CCCN2S(=O)(=O)c2ccc(Cl)cc2)cc1` (configuration not stated) is lower in z-score: -0.0897 for the first, -0.183 for the second.

Going from `O=C(CN1C(=O)CCS(=O)(=O)c2ccccc21)Nc1cccc(F)c1` to `O=C(Nc1cccc(-c2nnc(-c3ccccc3)o2)c1)C1CCCO1` (configuration not stated), the z-score rises from -0.608 to 3.

First: CN(C)CCOC(=O)C12CC3CC(CC(C3)C1)C2
Second: CCn1c(SCC(=O)NC2CCCCC2)nnc1-c1cccs1
The z-score of the first is lower: -0.651 for the first, 0.0017 for the second.

First: Cc1cc(NC(=O)c2nn3cccnc3c2Cl)no1
Second: Cc1cc(NC(=O)CSc2nnc(-c3ccc(Cl)s3)o2)no1
The z-score of the first is higher: 0.255 for the first, -0.14 for the second.

Going from `Cc1ccc(NC(=O)COC(=O)/C=C/c2cccs2)c(C)c1` to `N#Cc1ccc(Cl)cc1NC(=O)COC(=O)c1ccc(S(=O)(=O)N2CCCC2)cc1`, the z-score falls from -0.187 to -0.554.

Compared with `COc1nc(NCCN2CCOCC2)nc(Nc2ccccc2)n1`, `COC(=O)c1[nH]c2cc(OC)ccc2c1NC(=O)CCN1CCN(c2ccccc2)CC1` is higher in z-score: -0.161 for the first, 0.0276 for the second.

First: CCCCCOC(=O)Cn1c(N2CCOCC2)nc2c1c(=O)[nH]c(=O)n2C
Second: CCOC(=O)c1[nH]c(CSc2nnc(-c3ccncc3)n2CCOC)c(C(=O)OCC)c1C
The z-score of the first is lower: -0.228 for the first, 0.162 for the second.

Compared with `COc1cc(/C=C2\SC(=S)N(Nc3ncc(C(F)(F)F)cc3Cl)C2=O)ccc1O`, `COc1ccc(-c2cc(C(F)(F)F)nc(NCc3ccco3)n2)cc1OC` is lower in z-score: 1.29 for the first, -0.224 for the second.

Going from `O=C(NCC(=O)N(c1ccc2c(c1)OCO2)C(C(=O)NC1CCCC1)c1cccs1)c1ccco1` (configuration not stated) to `CCOC(=O)CN(C(=O)CNC(=O)c1cccs1)C(C(=O)NC1CCCCC1)c1cccnc1` (configuration not stated), the z-score falls from -0.15 to -0.161.

First: CCn1cc(Br)c(C(=O)NCc2ccco2)n1
Second: O=C(Nc1ccc(S(=O)(=O)NCc2ccco2)cc1)c1ccc2ccccc2n1
The z-score of the first is lower: -0.035 for the first, 0.441 for the second.

First: Cc1[nH]c2ccc(OCc3ccccc3)cc2c1CCN1C(=O)OC(C)(C)C1(C)O (configuration not stated)
Second: CN(C)C(CNC(=O)CCCc1c[nH]c2ccccc12)c1ccco1 (configuration not stated)
The z-score of the first is higher: 0.395 for the first, -0.0945 for the second.

Compared with `Cc1nn(CCCC(=O)NCc2ccccc2)c(C)c1[N+](=O)[O-]`, `CCCC(NC(=O)CCl)c1ccccc1` (configuration not stated) is higher in z-score: -0.229 for the first, -0.196 for the second.

Compared with `CN(C(=O)c1cccc(Nc2ccc(-c3ccc4c(c3)OCCO4)nn2)c1)C1CCCCC1`, `O=C1CCCN1CN(C(=O)c1ccc2c(c1)OCO2)c1cccc(Cl)c1` is lower in z-score: -0.0525 for the first, -0.21 for the second.

First: COc1cc(C)c(S(=O)(=O)NC2CC(C)(C)NC(C)(C)C2)cc1C
Second: COc1ccc(CN2CCCCC2C)cc1C (configuration not stated)
The z-score of the first is higher: 1.09 for the first, 0.24 for the second.

Compared with `CC(C)(C)C1CCc2c(sc3c2C(=O)NC(c2ccco2)N3)C1` (configuration not stated), `COCCOC(=O)C1=C(C)NC(SCC(=O)NC(C)(C)C)=C(C#N)C1c1ccco1` (configuration not stated) is higher in z-score: -0.267 for the first, -0.204 for the second.

Compared with `COc1ccc(-c2csc(NC(=O)CC(C)C)n2)cc1`, `COc1ccc(CNc2nc(NCc3ccc(OC)cc3)n(C(C)=O)n2)cc1` is higher in z-score: -0.146 for the first, 0.112 for the second.

Going from `CCC(Sc1nc2ccc(C)cc2[nH]1)C(=O)O` (configuration not stated) to `CCCNc1nc(-c2ccccc2)c(C(=O)OCC)cc1C#N`, the z-score falls from 0.179 to -0.322.

Compared with `O=C1C2C3C=CC([C@@H]2C(=O)N1Cc1cccnc1)C31CC1` (some centres not stated), `CCOC(=O)c1c(NC(=O)c2cccnc2)sc(C(C)=O)c1C` is lower in z-score: 0.204 for the first, -0.374 for the second.

First: COC(=O)c1ccc(C2NC(C(=O)O)CS2)cc1 (configuration not stated)
Second: COc1ccc(C(=S)N2CCNCC2)cc1
The z-score of the first is higher: 0.0669 for the first, -0.24 for the second.

Going from `Cc1ccc(CC(NC(=O)c2ccccc2)C(=O)NCC(=O)O)cc1` (configuration not stated) (Bz-[ξPhe(4-Me)]-Gly-OH) to `C=CCOC(=O)/C(=C\c1cccc2ccccc12)NC(=O)c1ccccc1`, the z-score falls from -0.182 to -0.859.

Going from `CCOC(=O)C1=C(c2ccccc2)OC(N)=C(C#N)C1c1ccc(Cl)s1` (configuration not stated) to `COc1ccc(/C=N/NC(=O)C2(O)c3ccccc3-c3ccccc32)cc1`, the z-score falls from 0.397 to -0.188.

Compared with `Cn1cc(S(=O)(=O)NCc2cccs2)c(=O)n(C)c1=O`, `O=C1OCc2cc(NS(=O)(=O)c3cccs3)ccc21` is higher in z-score: -0.114 for the first, -0.0208 for the second.

Compared with `Cc1ccc(-n2nnnc2SC(C(=O)c2c[nH]c3ccccc23)c2ccccc2)cc1` (configuration not stated), `CCC(C)(C)n1nnnc1C(c1ccc(O)c(OC)c1)N1CCc2ccccc2C1` (configuration not stated) is higher in z-score: -0.184 for the first, 0.179 for the second.

Compared with `O=C(O)c1c2c(nc3ccccc13)CCCCC2`, `COc1ccc(CCC(=O)N2CCN(C3CCCCC3)CC2)cc1` is higher in z-score: -0.169 for the first, 0.0604 for the second.

Going from `CC1Cn2c(nnc2-c2cccs2)S1` (configuration not stated) to `CCCC(=O)Nc1nnc(CC(=O)OCC)s1`, the z-score falls from 0.809 to 0.155.

Compared with `CCCCN(CCNP(=O)(OCC)OCC)CP(=O)(OCC)OCC`, `COCCCNC(=O)C(=O)NCCCOC(C)C` is higher in z-score: -0.386 for the first, -0.0971 for the second.

First: CCn1c(CCC(=O)Nc2nc3c(s2)CCCC3)nc2cc(S(=O)(=O)N(C)C)ccc21
Second: CCN(CC)c1ccc(-c2nc3cnccn3c2NC2CCCC2)cc1
The z-score of the first is lower: -1.73 for the first, -0.206 for the second.

Going from `COc1cc(CNc2ccccc2Oc2cc(=O)n(C)c(=O)n2C)cc(OC)c1OC` to `Cc1ccc2c(c1)CC1(CN2C)C(=O)OC2(CCCCC2)OC1=O`, the z-score falls from -0.0525 to -0.298.

Going from `CCOc1ccc(-c2cn[nH]c2N)cc1` to `O=C(Oc1ccc(Br)cc1)C1CC(=O)N(c2ccc(F)cc2)C1` (configuration not stated), the z-score falls from 0.0827 to -2.14.

Compared with `Cc1occc1C(=O)N/N=C/c1ccc(Cl)c([N+](=O)[O-])c1`, `Cc1ccc(S(=O)(=O)N/N=C/c2cccc([N+](=O)[O-])c2)cc1` is lower in z-score: -0.263 for the first, -1.79 for the second.
